# Measurements as given in PubChem BioAssay (Tox21).
# Several values for one entry are separate records, joined by “and”; a condition that tells them apart may be missing. Equal values may be shown once. The shares of active, inactive and inconclusive entries below differ from those in the screen. Potencies of inconclusive entries are doubtful fits and often do not repeat. Activity calls are given as the source filed them. Unless noted, calls come from the whole dose curve; as a rule, active = well fitted curve in the direction sought with a large enough effect in the repeat runs; inconclusive = weak or mixed curves; inactive = no such curve, though single readings can be large; an effect the other way counts as inactive or inconclusive.
# How the values were obtained:
# [1] = qHTS assay for identifying genotoxic compounds that show differential cytotoxicity against isogenic chicken DT40 cell lines with known DNA damage response pathways - Rev3 mutant cell line (AID 743014); settings: chicken DT40 Rev3-/- viability, CellTiter-Glo, 40 h; activity, negative = cytotoxicity: at 68.4 µM (top of the series) unless noted; note: nearly all actives have a fitted effect of over 55% in size
# [2] = qHTS assay to identify small molecule antagonists of the androgen receptor (AR) signaling pathway - cell viability counter screen (AID 743033; note: nearly all actives have a fitted effect of over 45% in size); settings: AR-bla HEK293 viability, CellTiter-Glo luminescence, 16 h; activity change, negative = cytotoxicity: at 58.5 µM (top of the series) unless noted
# [3] = qHTS assay for identifying genotoxic compounds that show differential cytotoxicity against isogenic chicken DT40 cell lines with known DNA damage response pathways - Rad54/Ku70 mutant cell line (AID 743015); settings: DT40 Rad54/Ku70 mutant viability, CellTiter-Glo, 40 h; activity change, negative = cytotoxicity: at 66.8 µM (top of the series); note: nearly all actives have a fitted effect of over 60% in size
# [4] = molecular target: Androgen receptor (Homo sapiens) (UniProt P10275); assay: qHTS assay to identify small molecule antagonists of the androgen receptor (AR) signaling pathway (AID 743035; active = well fitted inhibition curve with a large enough effect in the signal ratio in the repeat runs, not every such curve was filed as active; inconclusive = weak or mixed curves, or effect the other way; inactive = no such curve, though single readings can be large or run the other way; the % refers to the signal ratio); settings: HEK293 AR-UAS-bla, R1881-stimulated, beta-lactamase FRET, 16 h; activity change, negative = inhibition: at 58.5 µM (top of the series) unless noted
# Summary of the method: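 Steps: seed AR-UAS-bla GripTite HEK293 cells, incubate 4 h at 37C; pin in test compound, then add agonist R1881; incubate 16 h at 37C; add LiveBLAzer B/G FRET substrate, 2 h at room temperature; read fluorescence.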
# % is set by controls: 0 for no effect and ±100 for the full control effect; potency is the fitted concentration of half-maximal effect; tags give direction and shape of the fitted curve.
# Sequence of UniProt P10275 (P10275 whole entry, looked up): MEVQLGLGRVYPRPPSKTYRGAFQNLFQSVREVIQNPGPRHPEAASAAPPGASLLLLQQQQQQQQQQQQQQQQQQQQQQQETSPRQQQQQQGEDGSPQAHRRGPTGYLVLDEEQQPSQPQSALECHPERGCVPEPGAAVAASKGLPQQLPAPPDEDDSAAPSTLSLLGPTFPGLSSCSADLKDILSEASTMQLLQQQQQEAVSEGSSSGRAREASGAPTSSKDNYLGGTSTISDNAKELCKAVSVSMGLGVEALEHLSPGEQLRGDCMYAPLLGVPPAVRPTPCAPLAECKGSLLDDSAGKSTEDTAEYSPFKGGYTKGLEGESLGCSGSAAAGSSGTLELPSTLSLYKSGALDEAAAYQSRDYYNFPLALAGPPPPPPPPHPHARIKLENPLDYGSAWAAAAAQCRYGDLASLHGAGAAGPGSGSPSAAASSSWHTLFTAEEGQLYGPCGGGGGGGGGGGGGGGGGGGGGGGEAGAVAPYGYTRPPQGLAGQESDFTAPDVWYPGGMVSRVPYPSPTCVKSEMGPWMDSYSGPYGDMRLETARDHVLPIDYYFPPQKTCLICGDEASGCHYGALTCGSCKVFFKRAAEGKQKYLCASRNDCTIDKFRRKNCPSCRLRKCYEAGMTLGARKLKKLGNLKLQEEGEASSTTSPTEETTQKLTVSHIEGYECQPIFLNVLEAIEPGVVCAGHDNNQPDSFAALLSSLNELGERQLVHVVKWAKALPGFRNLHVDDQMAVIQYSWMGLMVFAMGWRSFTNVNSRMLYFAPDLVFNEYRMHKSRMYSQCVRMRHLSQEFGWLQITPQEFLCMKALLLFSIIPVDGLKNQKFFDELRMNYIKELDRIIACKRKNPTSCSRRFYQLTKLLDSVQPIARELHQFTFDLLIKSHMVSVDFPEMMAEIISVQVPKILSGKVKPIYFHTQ
structure (smiles),measurement,setting,value
CC(O)CNCC(C)O (stereo unspecified),Potency,[1],inactive
same,Potency,[2],inactive
CC(=O)N(CC(O)CN(C(C)=O)c1c(I)c(C(=O)NCC(O)CO)c(I)c(C(=O)NCC(O)CO)c1I)c1c(I)c(C(=O)NCC(O)CO)c(I)c(C(=O)NCC(O)CO)c1I (stereo unspecified),Potency,[1],inactive
same,Potency,[2],"inconclusive: 2.56 µM [cytotoxic, full curve, poor fit]"
Cc1ccc(C(N)=O)cc1N,Potency,[3],"inconclusive: 2.73 µM [rising, partial curve, poor fit]"
CC(C)=CCC/C(C)=C/CC/C(C)=C/CO,Potency,[1],active: 54.5 µM
same,Potency,[2],"inconclusive: 38.9 µM [cytotoxic, partial curve, poor fit]"
COC(OC)C(C)c1ccccc1 (stereo unspecified),Potency,[1],inactive
same,Potency,[4],inactive
COc1cc(C)ccc1C(C)C,Potency,[1],inactive
same,Potency,[3],"inconclusive: 68.6 µM [cytotoxic, single point]"
Oc1ccc(Nc2ccccc2)cc1,Potency,[1],active: 6.11 µM
same,Potency,[4],"inconclusive: 17.4 µM [rising, full curve]"
CCCNCC(O)COc1ccccc1C(=O)CCc1ccccc1 (stereo unspecified),Potency,[1],active: 11.9 µM
same,Potency,[2],"inconclusive: 23.9 µM [cytotoxic, single point]"
NC[C@H](O)c1ccc(O)c(O)c1,Potency,[1],active: 21.1 µM and active: 17.2 µM
same,Potency,[3],"inconclusive: 33.5 µM [cytotoxic, single point] and active: 24.3 µM"
CCCCC(CC)CCC(CC(C)C)OS(=O)(=O)O (stereo unspecified),Potency,[1],inactive
same,Potency,[3],inactive
CCC(CO)CO,Potency,[1],"inconclusive: 30.6 µM [cytotoxic, partial curve, poor fit]"
same,Potency,[3],inactive
Cc1cc(NC(=O)C(=O)O)cc(C)c1Oc1ccc(O)c2c1CCC2,Potency,[1],"inconclusive: 96.9 µM [cytotoxic, single point]"
same,Potency,[4],inactive
CC(C(=O)O)c1ccc(C(=O)c2ccccc2)s1 (stereo unspecified),Potency,[1],inactive
same,"activity change, negative = cytotoxicity",[2],inconclusive: -30.8% [cytotoxic] [at 27 µM]
c1ccc2c(c1)ccc1c3ccccc3ccc21,Potency,[1],inactive
same,Potency,[2],inactive
C[N+](C)(C)CCOC(N)=O,Potency,[1],inactive
same,"activity change, negative = inhibition",[4],inconclusive: 35.1%
C=C1CC[C@H]2C[C@@H]1C2(C)C,Potency,[1],"inconclusive: 68.6 µM [cytotoxic, single point]"
same,Potency,[3],"inconclusive: 43.3 µM [cytotoxic, partial curve, poor fit]"
CSc1ccc(Oc2ccc(S(N)(=O)=O)cc2CN(C)C)cc1C,Potency,[1],active: 27.3 µM
same,Potency,[4],"inconclusive: 54.9 µM [rising, partial curve, poor fit]"
FC(F)(Cl)C(F)(Cl)Cl,Potency,[3],inactive
O=C1CC2(CCCC2)CC(=O)N1CCNCC1COc2ccccc2O1 (stereo unspecified),Potency,[1],active: 26.6 µM
same,Potency,[2],inconclusive: 26.8 µM [cytotoxic]
C[n+]1ccccc1/C=N/O,Potency,[1],"inconclusive: 12.7 µM [rising, partial curve, poor fit]"
same,Potency,[2],"inconclusive: 0.0229 µM [rising, full curve, poor fit]"
O=[N+]([O-])c1ccc(NCCO)c(OCCO)c1,Potency,[1],"inconclusive: 43.3 µM [cytotoxic, partial curve, poor fit]"
same,Potency,[4],inactive
C[C@H]1O[C@@H](n2cc(F)c(=O)[nH]c2=O)[C@H](O)[C@@H]1O,Potency,[1],"inconclusive: 26.6 µM [cytotoxic, single point]"
same,Potency,[2],"inconclusive: 2.39 µM [cytotoxic, full curve, poor fit]"
OC(CCCN1CCCCC1)(c1ccccc1)c1ccccc1,Potency,[1],inconclusive: 29.8 µM [cytotoxic]
same,Potency,[4],inactive
C[C@@H](N)C(=O)O,Potency,[1],inactive
same,Potency,[4],inconclusive: 26.8 µM
C=C1CC/C=C(\C)CC[C@@H]2[C@@H]1CC2(C)C,Potency,[1],"inconclusive: 68.6 µM [cytotoxic, partial curve, poor fit]"
same,Potency,[3],inactive
CC(C)O,Potency,[1],inactive
same,Potency,[2],inconclusive: 59 µM [cytotoxic]
COc1cc([N+](=O)[O-])ccc1N,Potency,[1],inconclusive: 43.3 µM [cytotoxic]
same,"activity change, negative = inhibition",[4],inconclusive: -11.4%
CC1CCc2c(N3CCC(O)CC3)c(F)cc3c(=O)c(C(=O)O)cn1c23 (stereo unspecified),Potency,[1],"inconclusive: 29.8 µM [cytotoxic, partial curve, poor fit]"
same,Potency,[3],"inconclusive: 33.5 µM [cytotoxic, single point]"
Cc1ccc(N(C)C)cc1,"activity, negative = cytotoxicity",[1],inconclusive: -35.8% [cytotoxic]
same,"activity change, negative = inhibition",[4],inconclusive: 12.2%
